Common to all, as to assay: Agar dilution on enriched GC agar; resistance determinants by microarray.
Compound in one assay: CN(C)[C@@H]1C(O)=C(C(N)=O)C(=O)[C@@]2(O)C(O)=C3C(=O)c4c(O)cccc4[C@@](C)(O)[C@H]3C[C@@H]12 [tetracycline]
Compound in a further assay: CN[C@@H]1[C@H](O)[C@H](NC)[C@H]2O[C@@]3(O)C(=O)C[C@@H](C)O[C@H]3O[C@@H]2[C@H]1O [spectinomycin]
Compound in the next assay: CO/N=C(\C(=O)N[C@@H]1C(=O)N2C(C(=O)O)=C(CSc3nc(=O)c(O)nn3C)CS[C@H]12)c1csc(N)n1 [ceftriaxone]
Compound in another assay: CC1(C)S[C@@H]2[C@H](NC(=O)Cc3ccccc3)C(=O)N2[C@H]1C(=O)O [benzylpenicillin]
Compound in a further assay: CC[C@H]1OC(=O)[C@H](C)[C@@H](O[C@H]2C[C@@](C)(OC)[C@@H](O)[C@H](C)O2)[C@H](C)[C@@H](O[C@@H]2O[C@H](C)C[C@H](N(C)C)[C@H]2O)[C@](C)(O)C[C@@H](C)CN(C)[C@H](C)[C@@H](O)[C@]1(C)O [azithromycin]

MIC of clinical N. gonorrhoeae isolates (2015-2017) by agar dilution on GC agar with 1% IsoVitaleX (ranges not stated); higher = less susceptible. No active / inactive call per row; the paper counts benzylpenicillin above 1 and ceftriaxone above 0.125 mg/L as resistant (EUCAST). The method is stated for benzylpenicillin and ceftriaxone and assumed for the other drugs. '<=' is inferred from pile-ups at the end values. Isolates are numbered anew.

As to “Neisseria gonorrhoeae isolate 224 (blaTEM plasmid: no, gyrA: wild type, mtrR promoter: wild type, parC: wild type, penA: wild type, ponA: wild type, porB: wild type, rpsJ: wild type, tetM plasmid: no)”, the MIC with tetracycline was 0.12 mg/L; with spectinomycin it was 16 mg/L; with ceftriaxone, no more than 2 ng/mL; with benzylpenicillin, no more than 0.015 mg/L; with azithromycin, 0.06 mg/L.

On to “Neisseria gonorrhoeae isolate 467 (blaTEM plasmid: no, gyrA: Phe91, Asp95, mtrR promoter: -35delA, parC: wild type, penA: ins345Asp, ponA: Pro421, porB: Asp120, Gly121, rpsJ: Met57, tetM plasmid: no)”, for which the MIC with tetracycline was found to be 1 mg/L; with spectinomycin, 16 mg/L; with ceftriaxone, 4 ng/mL; in the assay with benzylpenicillin, 0.5 mg/L; with azithromycin it was 0.25 mg/L.

For the test system “Neisseria gonorrhoeae isolate 360 (blaTEM plasmid: no, gyrA: wild type, mtrR promoter: wild type, parC: wild type, penA: ins345Asp, ponA: wild type, porB: Lys120, Asn121, rpsJ: Met57, tetM plasmid: yes)”, the MIC with tetracycline is 4 mg/L; in the assay with spectinomycin, 8 mg/L; with ceftriaxone, no more than 2 ng/mL; with benzylpenicillin it was 0.06 mg/L; with azithromycin, 1 mg/L.

As to “Neisseria gonorrhoeae isolate 212 (blaTEM plasmid: no, gyrA: Phe91, Asn 95, mtrR promoter: wild type, parC: Arg 87, Glu91, penA: ins345Asp, ponA: Pro421, porB: wild type, rpsJ: Met57, tetM plasmid: no)”, the MIC was 0.5 mg/L in the assay with tetracycline; 16 mg/L with spectinomycin; no more than 2 ng/mL with ceftriaxone; no more than 0.015 mg/L with benzylpenicillin; 0.06 mg/L in the assay with azithromycin.

As to “Neisseria gonorrhoeae isolate 397 (blaTEM plasmid: no, gyrA: Phe91, Gly95, mtrR promoter: wild type, parC: Arg87, Glu91, penA: ins345Asp, ponA: Pro421, porB: wild type, rpsJ: Met57, tetM plasmid: no)”, the MIC with tetracycline is 0.5 mg/L; with spectinomycin, 32 mg/L; with ceftriaxone, 4 ng/mL; with benzylpenicillin, 0.25 mg/L; in the assay with azithromycin it was 0.015 mg/L.

For “Neisseria gonorrhoeae isolate 217 (blaTEM plasmid: no, gyrA: wild type, mtrR promoter: wild type, parC: wild type, penA: ins345Asp, ponA: wild type, porB: wild type, rpsJ: wild type, tetM plasmid: no)”, the MIC in the assay with tetracycline is 0.12 mg/L; in the assay with spectinomycin it was 32 mg/L; in the assay with ceftriaxone, no more than 2 ng/mL; with benzylpenicillin it was 0.03 mg/L; with azithromycin it was 0.008 mg/L.

On to “Neisseria gonorrhoeae isolate 236 (blaTEM plasmid: no, gyrA: wild type, mtrR promoter: wild type, parC: wild type, penA: wild type, ponA: wild type, porB: wild type, rpsJ: wild type, tetM plasmid: no)”, for which the MIC with tetracycline is 0.03 mg/L; with spectinomycin, 8 mg/L; in the assay with ceftriaxone, no more than 2 ng/mL; in the assay with benzylpenicillin, no more than 0.015 mg/L; with azithromycin, 0.002 mg/L.

In the case of “Neisseria gonorrhoeae isolate 346 (blaTEM plasmid: no, gyrA: Phe91, Asn 95, mtrR promoter: -35delA, parC: wild type, penA: ins345Asp, ponA: wild type, porB: Asn120, Asp 121, rpsJ: Met57, tetM plasmid: no)”, the minimal inhibitory concentration (MIC) in the assay with tetracycline is 4 mg/L; with spectinomycin, 16 mg/L; with ceftriaxone, 30 ng/mL; in the assay with benzylpenicillin it was 2 mg/L; with azithromycin it was 0.5 mg/L.

Take “Neisseria gonorrhoeae isolate 68 (blaTEM plasmid: no, gyrA: Phe91, Gly95, mtrR promoter: wild type, parC: Arg87, Glu91, penA: ins345Asp, ponA: wild type, porB: Asn120, Asp121, rpsJ: Met57, tetM plasmid: no)”: the MIC with tetracycline was 2 mg/L; with spectinomycin, 16 mg/L; with ceftriaxone, 8 ng/mL; in the assay with benzylpenicillin it was 0.5 mg/L; with azithromycin, 0.5 mg/L.

Regarding “Neisseria gonorrhoeae isolate 375 (blaTEM plasmid: no, gyrA: wild type, mtrR promoter: wild type, parC: wild type, penA: wild type, ponA: wild type, porB: wild type, rpsJ: wild type, tetM plasmid: no)”, the MIC with tetracycline was 0.5 mg/L; with spectinomycin, 32 mg/L; with ceftriaxone it was no more than 2 ng/mL; with benzylpenicillin, no more than 0.015 mg/L; with azithromycin it was 0.12 mg/L.

With “Neisseria gonorrhoeae isolate 269 (blaTEM plasmid: no, gyrA: Thr91, Gly95, mtrR promoter: wild type, parC: wild type, penA: wild type, ponA: wild type, porB: wild type, rpsJ: wild type, tetM plasmid: no)”, the MIC with tetracycline was 0.12 mg/L; in the assay with spectinomycin, 16 mg/L; with ceftriaxone, no more than 2 ng/mL; with benzylpenicillin, 0.12 mg/L; with azithromycin it was 0.03 mg/L.

The values are drawn from the supplement of paper PMC6657886.
